In all, about 33,000 sequences were measured (“E-score (-0.5 to 0.5)”: median about -0.032, highest 2% from about 0.36 on). The list shows a part of the results.
Target: T1, Sko1 (UniProt Q02100)
T1 sequence: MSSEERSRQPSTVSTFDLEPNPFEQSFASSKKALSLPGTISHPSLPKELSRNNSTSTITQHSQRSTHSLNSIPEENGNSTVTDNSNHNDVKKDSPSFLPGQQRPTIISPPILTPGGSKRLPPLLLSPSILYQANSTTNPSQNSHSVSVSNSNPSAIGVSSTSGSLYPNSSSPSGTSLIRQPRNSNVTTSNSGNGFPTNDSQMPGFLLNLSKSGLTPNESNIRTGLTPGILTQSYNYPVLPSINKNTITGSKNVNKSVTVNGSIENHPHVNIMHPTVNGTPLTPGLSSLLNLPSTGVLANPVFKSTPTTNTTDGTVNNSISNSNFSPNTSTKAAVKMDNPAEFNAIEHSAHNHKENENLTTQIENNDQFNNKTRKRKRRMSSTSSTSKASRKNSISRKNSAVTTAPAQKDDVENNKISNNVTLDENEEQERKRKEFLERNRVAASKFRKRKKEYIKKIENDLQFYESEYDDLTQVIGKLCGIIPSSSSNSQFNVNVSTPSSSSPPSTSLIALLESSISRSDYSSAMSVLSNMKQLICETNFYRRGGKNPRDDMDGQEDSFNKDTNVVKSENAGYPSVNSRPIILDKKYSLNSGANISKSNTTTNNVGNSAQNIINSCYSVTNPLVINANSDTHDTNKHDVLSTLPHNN
Test: PBM E-score (8-mer binding enrichment) (E-score (-0.5 to 0.5)); higher = stronger / more preferred TF binding; most listed sequences are background and not binding sites
Settings: protein concentration: 200 nM; construct: GST-full length
Outline: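 Bound GST-tagged yeast transcription factors, applied at about 100-200 nM to double-stranded universal all-10-mer Agilent arrays, were detected with fluorescent anti-GST. Scans were normalised with masliner. A modified Wilcoxon-Mann-Whitney statistic, the E-score, was assigned to each ungapped eight-base word pooled with its reverse complement by the Universal PBM Analysis Suite.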

Sequence	PBM E-score
CAAGGTTC	-0.198
AAAACCTT	-0.17
GACAAGAA	0.121
CATGGGCC	-0.186
GACGTCGC	0.334
TACCAGTA	-0.0641
ATATCGGC	0.0222
CTATCCTC	-0.246
GGAAGTAC	-0.253
GTGCTGAA	-0.0793
ACCGACGA	0.0822
GTCCCGAC	-0.189
CATTAGGA	0.0571
TATTAAAA	0.233
GAAGACTC	-0.212
GGGTGGAA	-0.0996
GGTCGTAC	-0.239
ACCGCGGT	-0.281
AGGTAGAT	-0.0309
CCCTTCCG	-0.293
ATATATCC	0.202
GAGCGGCA	-0.194
CAAGCCCC	-0.297
AACCCAAA	0.0863
ACTAGCTG	-0.0107

Sequence	PBM E-score
CAGTGACA	0.0692
ATATAAAT	0.303
AGTTAGCG	0.113
CCCGCGAC	-0.23
CACTTAGA	0.188
GTAACAGA	0.173
CGTTACAA	0.219
GGAACGCA	-0.0403
GGACTCAA	-0.204
ATAACGAG	0.122
AGGCCCGA	-0.252
ATTTATCA	0.159
CATGTTTC	0.139
CTCGTAAA	0.139
TGATTGAA	0.0948
ACGAAAGA	0.202
ATGACGCG	0.476
CTCACTTA	0.00501
CGCCCTAG	-0.143
AACTGTCC	-0.334
CACGTGGA	0.315
TCGCTTAA	-0.0032
TTGAACAA	0.0438
AAAGTGTA	0.176
AGACCGTA	-0.0268

Sequence	PBM E-score
CCCGGCAG	-0.352
CAAGGATC	-0.138
ACCTAACG	0.129
ATCTAAGG	0.0499
ATCCGTGA	-0.0237
GACCTCGA	-0.126
ACTAGATC	-0.0827
ATGCGTGG	0.0146
GTGTTCAA	0.0463
GAGCCAGC	-0.274
ACCGAGGT	-0.25
CGAATAAC	0.179
CCCCCGAC	-0.286
CCTCACCG	-0.323
CTCTCTTA	-0.0213
CGAAGTTA	0.016
AAAGCGGC	-0.14
ACTTTAAA	0.101
AGACGTGG	0.203
AGTGCTCA	-0.0912
CGATTATA	0.0869
CAAGCTCA	-0.13
AGCGGTGG	-0.294
AAGTCCTC	-0.162
AATCCTGT	0.113

Sequence	PBM E-score
GAATTCGA	-0.136
CTTATGAC	0.374
AGCATGTA	0.162
GCTGAGAA	-0.241
CGTTATTC	0.152
AGTGTTCC	-0.00379
GGGGACCA	-0.0883
CCATGCAC	-0.124
GGTATACC	-0.122
CACCGAGC	-0.0943
ACTTTTCC	0.0503
TGTTGCAA	0.131
ATAGAGAG	-0.271
TATGAGCA	0.00789
GGGGCAAA	-0.158
GCCGAAGA	0.168
ACTGCAAC	-0.0632
GCCTAGCA	-0.258
AAATGCCT	-0.0889
GACATGTA	0.146
CATCTAAA	0.0852
AATATCCT	0.00379
GTCCATAA	-0.0368
ATCCGGTC	-0.218
CCGGTCAG	-0.324

Sequence	PBM E-score
ACTAGGTG	-0.208
AGCGCCCA	-0.272
GAAGTGAA	-0.0799
GTCCGCTA	-0.135
ATTAGGTA	0.354
GCGCCGCA	-0.129
ATCTTACC	0.0235
GCATAGGA	-0.046
ATCTCCCA	-0.133
GCGCATAA	0.0577
CAGAGTAC	-0.0565
ACGTCTTA	0.408
GCTAAAAA	-0.0445
AGAATCTG	-0.0035
CACGCATA	0.0358
CCGCGGCC	-0.206
CGCTGCCG	-0.257
TAACTAAA	0.141
GACGGGCC	-0.196
CAACGCTG	-0.0634
TGCCTAAA	0.0424
AGCGTTTA	0.00426
AGTGCTCC	-0.154
AACCGATT	-0.0469
CGAACCAC	-0.139

Sequence	PBM E-score
GAGTAATC	0.0265
GCTGGACC	-0.273
GTAAATCA	0.157
AAAATGTT	0.177
ATGTATCA	0.226
AGAATCAG	-0.0239
GATAGCAC	-0.11
CAGGCATA	-0.0996
GACTGCTC	0.00729
CGGAACAG	-0.228
GAAGCCGC	-0.211
TCCCACCA	-0.211
AAGTACGA	0.201
GGGACGGA	-0.351
CACACTAA	0.178
AGGCTGAA	-0.18
GTGAGCGA	-0.0539
CAGGAGCG	-0.175
CCGTCTCC	-0.189
AAGGGTGA	0.016
GACCGTGC	-0.0619
ACTCGTAT	0.198
AGAGACCC	-0.278
ACTTAACT	0.184
CTCGGGCC	-0.192

Sequence	PBM E-score
CAATGGAC	0.0791
CTGGGCTC	-0.309
GAGCGAAA	0.117
CCCAGACC	-0.206
CGAGTCCA	-0.3
ATTTAGCG	0.0277
ACCACAAC	0.158
CCGCCCAG	-0.138
GACTGCTA	-0.28
ACTGCATA	0.0646
GAGCATAC	0.0798
ACAACCAA	0.0246
AAAGCTTA	0.141
CGAATTCC	-0.0114
AGTCCCAC	-0.274
ATGCAATA	0.166
TCACTTCA	-0.00086
CGAAATAA	0.233
GCAACAAC	0.129
AGCACCGG	-0.227
GGTGTAGA	-0.139
GCCTGGCA	-0.326
AATAAAAT	0.215
ATCTCCAC	0.0316
AAGCGTTC	-0.207

Sequence	PBM E-score
GATTCCCA	-0.202
AGACATCT	-0.104
AGCATCCT	-0.106
AGACAACA	-0.0177
TCTCTCAA	0.127
ACAAATAT	0.134
GGAGCGTA	0.0129
ATTAGTCC	0.00156
AAGACACC	-0.0885
AAACTAAC	0.15
ACTCGTTA	0.0383
CTGGTAAG	-0.0775
ACATATTA	0.286
AGGTTTGA	-0.119
AAGAGGAA	-0.021
ATGTGTGG	-0.144
GGCGGTAC	-0.148
GATGCGCA	0.201
TCAGCGCA	-0.0184
CTAGAATC	-0.0473
GCTTGGCC	-0.255
CTGTCACC	-0.181
CATGTCAG	0.0017
CTTTAAAG	0.124
GAAGCCTA	-0.0692

Sequence	PBM E-score
GATCAAAC	-0.0182
AGTGAGCC	-0.245
AGTTGACG	0.29
CATCACTC	0.11
TCAGCCCA	-0.149
CACTAACA	0.0382
ATCGTCAT	0.469
ACACGAAC	0.0399
CGTTTCAC	0.168
CCTTCAAC	-0.0402
CCCGTACG	0.0984
CCTGCCTC	-0.36
ACGACTGG	-0.0614
CGGGGCAA	-0.309
AGACTATA	0.00094
AATTTCCT	-0.118
CAGGATCC	-0.045
TTAGAGAA	-0.00929
CACGGACG	0.0947

— the supplement of paper PMC3334620
